Data published in PubChem BioAssay AID743279 (National Center for Advancing Translational Sciences (NCATS), 2014).
Where “and” joins values, the source holds several entries; their conditions need not be identical. Identical values can stand only once. The whole screen tested about 360,000 compounds, of which about 17,000 (4.7%) were called active. Inconclusive means that the source gave no clear call. Such entries were picked first, then a sample of the others. Rule as the data show it: active = activity change below about -50%; inconclusive = mostly about -30% to -49%; inactive = weaker than that. More than one record can exist for a structure, and the calls need not agree.

experiment: qHTS for Inhibitors of Inflammasome Signaling: IL-1-beta AlphaLISA Primary Screen; conditions: THP-1 LPS/ATP IL-1B secretion, 16 h; at 57.5 µM, hits give low values
Method in brief: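 Secreted IL-1B measured by AlphaLISA bead assay after 16 h compound exposure of THP-1 cells; compounds (final up to 57.5 uM) added 1 h before LPS (250 ng/mL) and ATP (1.25 mM) stimulation; lower signal means less secretion.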
% is scaled to controls: 0 for no effect and ±100 for the full control effect.

| SMILES | activity change |
| --- | --- |
| COc1ccc(-c2ccc(C(=O)NCc3ccccc3)c3occc23)c(C)c1 | inconclusive: -46.3% |
| COc1ccc(OC)c(/C(O)=C/C(=O)C(=O)Nc2cc(C)cc(C)c2)c1 | inactive: 52.8% |
| Cc1oc2ccc(NS(=O)(=O)c3ccc(C(C)(C)C)cc3)cc2c1C(=O)Nc1ccccc1 | inconclusive: -36.4% |
| O=C(O)CCCN1C(=O)/C(=C\c2ccco2)SC1=S | inconclusive: -39.5% |
| COc1ccc2c(c1)CCCC21NC(=O)N(CC(=O)NC(=O)NCc2ccccc2)C1=O (stereo not drawn) | inactive: -6.35% |
| COC(=O)N/N=C/c1ccc(-c2ccc(C)c(Cl)c2)o1 | inconclusive: -40.6% |
| CC1Nc2ncnc(N3CCc4ccccc4C3)c2N(Cc2ccc(Br)cc2)C1=O (stereo not drawn) | inconclusive: -34.2% |
| COc1ccc(/C=C/C(=O)N2CCCc3ccccc32)c(OC)c1 | inconclusive: -40.5% |
| CC(C)(C)C1CCN2CCC[C@](c3ccccc3)(C1)[C@@]21CO1 (stereo partly drawn) | inconclusive: -37% |
| Cc1cc(C(=O)Nc2ccccc2C(=O)O)ccc1NC(=O)COc1cccc(C)c1C | inactive: -2.33% |
| Cn1cc(C(=O)N/N=C/C(Br)=C/c2ccccc2)ccc1=O | inconclusive: -30.9% |
| Cc1cc(=O)n2c3ccccc3n(CC(O)CN3CCN(CCO)CC3)c2c1C#N (stereo not drawn) | inconclusive: -35.6% |
| O=C(Cc1ccc(S(=O)(=O)N2CCOCC2)s1)Nc1ccc2c(c1)CCC2 | inconclusive: -41.6% |
| COc1ccc(N(CC(=O)NCCC2=CCCCC2)S(=O)(=O)c2ccccc2F)cc1 | inconclusive: -45% |
| Cc1cc(C(O)c2ncc(-c3ccc(Oc4ccccc4)cc3)[nH]2)ccc1F (stereo not drawn) | active: -52.6% |
| Cc1ccc(C(=O)c2oc3ccc(Cl)cc3c2NC(=O)CN2CCN(C)CC2)cc1 | active: -56.9% |
| OC1(c2cccs2)CN(c2ccc(Br)cc2)C2=[N+]1CCCS2 (stereo not drawn) | inconclusive: -32.3% |
| Cc1ccc(C)c(NC(=S)NC(NC(=O)Cc2cccc3ccccc23)C(Cl)(Cl)Cl)c1 (stereo not drawn) | inconclusive: -39.3% |
| COC(=O)CSc1nnc(-c2ccc(NS(=O)(=O)c3ccccc3)cc2)o1 | inconclusive: -38.1% |
| COC(=O)c1cccc(S(=O)(=O)N2CCN(c3nc4ccccc4s3)CC2)c1 | inactive: 0% |
| COc1ccc2cc(C#N)c(N3CCN(Cc4nnnn4CCC(C)C)CC3)nc2c1 | inconclusive: -33.1% |
| CN(C)C1=NC[C@H](Cc2ccccc2)N1CCCC1CCCCC1 | inconclusive: -46% |

| SMILES | activity change |
| --- | --- |
| CCOc1ccc(Oc2ccccc2NC(=O)CSCC(=O)Nc2cc(C)on2)cc1 | inactive: 4.89% |
| Cn1c(C(=O)NC2CCCC2)cc2c(=O)n(C)c3ccccc3c21 | inconclusive: -38.7% |
| CCOC(=O)N1CCN(c2nc(-c3ccccc3)c3cc(C)ccc3n2)CC1 | inactive: 21.1% |
| CCCN(CCC)S(=O)(=O)c1cccc(-c2csc(C)n2)c1 | active: -54.9% |
| CC(C)(C)C(=O)N1CCc2cc(-c3csc(N)n3)ccc21 | inconclusive: -41.6% |
| COc1ccc2c(c1)c(C(=O)CNc1nc(C)cs1)c(C)n2C | inconclusive: -31.9% |
| CC(C)C[C@@H](CSc1ccc(Br)cc1)N1CCN(CCc2ccccc2)CCC1=O | inconclusive: -43.9% |
| O=C(Cc1ccccc1)Nc1ccc(NC(=O)c2ccco2)cc1 | inconclusive: -33.2% |
| O=C(CCc1nnc2n(CCc3ccccc3)c(=O)c3ccccc3n12)NCCCN1CCCCC1 | inconclusive: -49.9% |
| O=S(=O)(Nc1ncccn1)c1ccc(NC(=S)NCCc2ccccc2)cc1 | inactive: 55% |
| O=c1cc(-c2ccncc2)oc2c1ccc1ccccc12 | active: -83.4% |
| Cc1cn([C@H]2C[C@H](O)[C@@H](/C=C/C(=O)NCCC(c3ccccc3)c3ccccc3)O2)c(=O)[nH]c1=O | inactive: -0.426% |
| Cc1cccc(N(O)C(=O)Nc2cccc(Cl)c2)c1 | inconclusive: -43.7% |
| Cc1ccc(C(=O)NNC(=O)c2ccc3c(c2)OCCO3)cc1 | inconclusive: -39.4% |
| CCOC(CNC(=O)c1cc2c(=O)n(CC)c3ccccc3c2s1)OCC | inconclusive: -35.3% |
| CCOP(=O)(O)c1cccc(OCCOCCOc2cccc(P(=O)(O)OCC)c2)c1 | inactive: -7.95% |
| NC(=NCCCCCCN=C(N)/N=C(\N)Nc1ccc(Cl)cc1)/N=C(\N)Nc1ccc(Cl)cc1 | active: -92.2% and active: -100% |
| Cc1c(C(=O)OC2CCC(C)CC2)[nH]c2c1C(=O)CCC2 (stereo not drawn) | inconclusive: -47% |
| COc1ccc(C(=O)/C=C/c2ccc(OC)c(Cn3nnc4ccccc43)c2)cc1 | inconclusive: -35% |
| CCOc1ccccc1NC(=O)C(NCC1(N2CCCCC2)CCCCC1)c1ccccc1 (stereo not drawn) | inconclusive: -32% |
| O=[N+]([O-])c1ccccc1N(CC1CO1)S(=O)(=O)c1ccccc1 (stereo not drawn) | inconclusive: -47.3% |
